Measurements as given in the RNAGym collection of RNA variant scans (doi:10.7554/elife.90254).
The source gives no read counts; variants with many changes may rest on few reads.

B1: LINE1-full (parent)
chain: UACGUAGGUGGUUUUCCCCUGAUAGUGCUAAGGGGGCCUGGAAGUUUGGACUGGGCAGAGCUCAACACAGCGUGGCAAAGUGGCUGUGGCUAGACUGCCUCUCUGGAUUCCUCGUCACUCAGCAGGGCAUCUCUGAGAGAAAUGCC

Variants of: B1
Assay: self-cleavage, relative activity (ratio to wild type); higher = more cleavage; in vitro, sequencing; the parent is a self-cleaving ribozyme
Work on UACGUAGGUGGUUUUCCCCUGAUAGUGCAAAGAGUGCCUGGAAGUUUGGACUGGGCAGAGCUCAACACAGCGUGGCAAAGUGGCCGUGGCUAGACUGCCUCUCUGGAUUCCUCGUCACUCAGCAGGGCAUCUCUGAGAGAAAUGCC yielded a self-cleavage of 0.44.
UACGUAGGUGGUUUUCCCCUGAUAGUGCAAAGGGGGCCUGGAAGUUUGGACUGGGCAGGGCUCAACACAGCGUGGCGAAGUGGCUGUGGCUAGACUGCCUCUCUGGAUUCCUCGUCACUCAGCAGGGCAUCUCUGAGAGGAAUGCC showed a self-cleavage of 0.15.
In the case of UACGUAGGUGGUUUUCCCCUGAUAGUGCAAAGGGGGCCUGGAAGUUUGGGCUGGGCAGAGCUCAACACAGCGUGGCAAAGUGGCUGUGGCUAGACUGCCUCUCUGGAUUCCUUGUCACUCAGCAGGGCAUCUCUGAGAGAAGUGCC, the self-cleavage is reported as 0.74.
In the case of UACGUAGGUGGUUUUCCCCUGAUAGUGCAAAGGGGGCCCGGAAGUUUGGACUGGGCAGAGCUCAACACGGCGUGGCAAAGUGGCUGUGGCUAGACUGCCUCUCUGGAUUCCUCGUCACUCAGCAGGGCAUCUCUGAGAGAAAUGCC, the self-cleavage is reported as 0.
UACGUAGGUGGUUUUCCCCUGAUAGUGGUAAGGGGGCCUGGAAGUAUGGACUGGGCAGAGCUCAACUCAGCGUGGCAAAGUGGCUGUGGCUAGACUGCCUCUCUGGAUUCCUCGUCACUCAGCAGGGCAUCUCUGAGAGAAAUGCC showed a self-cleavage of 0.23.
Variant UACGUAGGUGGUUUUCCCCUGAUAGUGGUAAGGGGGCCUGGAAGUUUGGACUGGGCAGAGCUCAGCACAGCGUGGCAAAGUGGCUGUGGCUAGACUGCCUCUCUGGACUCCUCGUCACUCAGCAGGGCACCUCUGAGAGAAAUGCC has a self-cleavage of 0.
UACGUAGGUGGUUUUCCCCUGAUAGUGCAAAGGGGGCCUGGAAGUUUGGACUAGGCAGAGCUCAACACAGCGUGGCAAAGUGGCCGUGGCUAGACUGCCUCUCUGGAUUCCUCGUCACUCAGCAGGGCAUCCCUGAGAGAAAUGCC showed a self-cleavage of 0.12.
UACGUAGGUGGUUUUCCCCUGAUAGUGCAAAGGGGGCCUGGAGGUUUGGACUGGGCAGAGCUCAACACAGCGUGGCAAAGUGGCUGUGGCUAGACUGCCUCUCUGGAUUCCUCGUCACUCAGCAGGGCAUCUCUGAGAGAAAAGCC gave a self-cleavage of 0.45.
For UACGUAGGUGGUUUUCCCCUGAUAGUGUUAAGGGGGCCUGGAAGUUAGGACUGGGCAGAGCUCAACACAGCGUGGCAAAGUGGCUGUGGCUAGACUGCCUCUCUGGAUUCCCCGUCACUCAGCAGGGCAUCUCUGAGAGAAAUGCC, the self-cleavage was 0.93.
UACGUAGGUGGUUUUCCCCUGAUAGUGGUAAGGGAGCCUGGAAGUUUGGACUGGGCAGAGCUCAACACAGCGUGGCAAAGUGGCUGCGGCUAGACUGCCUCUCUGGAUUCCCCGUCUCUCAGCAGGGCAUCUCUGAGAGAAAUGCC showed a self-cleavage of 0.13.
Variant UACGUAGGUGGUUUUCCCCUGAUAGUGUUAAGGGGGCCUGGAAGUUUGGACCGGGCAGAGCUCAACACAGCGUGGCAAAGUGGCUGUGGCUAGACUGCCUCUCUGGAUUCCUCGUCACUUAGCAGGGCAUCUCUGAGAGAAAUGCC has a self-cleavage of 1.04.
Work on UACGUAGGUGGUUUUCCCCUGAUAGUGCAAAGGGGGCCUGGAGGUUUGGACUGGGCAGAGCUCGACACAGCGUGGCAAAGUGGCUGAGGCUAGACUGCCUCUCUGGAUUCCUCGUCACCCAGCAGGGCAUCUCUGAGAGAAAUGCC yielded a self-cleavage of 0.7.
UACGUAGGUGGUUUUCCCCUGAUAGUGUUAAGGGGGCCUGGAAGUUAGGACUGGGCAGAGCCCAACACAGCGUGGCAAAGUGGCUGCGGUUAGACUGCCUCUCUGGAUUCCUCGUCACUCAGCAGGGCAUCACUGAGAGAAAUGCC gave a self-cleavage of 0.02.
UACGUAGGUGGUUUUCCCCUGAUAGUGCAAAGGGGGCCUGGAAGUUUGGACUGGGCAGAGCUCAGCACAGCGUGGCAAAGUAGCUGUGGCUAGACUGCCUCUCUGGAUUCCUCGUCACUCAGCAGGGCAUCUCUGAGAUAAAUGCC gave a self-cleavage of 0.07.
Work on UACGUAGGUGGUUUUCCCCUGAUAGUGCAAAGGGGGCCUGGAAGUUUGGACUGGGCUGAGCUCAACACAGCGUGGCAAGGUGGCUGUGGCUAGACUGCCUCUCUGGAUUCCUCGUCACUCAGCAGGGCUUCUCUGAGAGAAAUGCC yielded a self-cleavage of 0.12.
Work on UACGUAGGUGGUUUUCCCCUGAUAGUGCAAAGGGGGCCUGGAAGUUUGGACUGGGCAGAGCUCAACACAGCGUGGCGAAGUGGCUGUGGCUAGACUGCCUCUCUGGAUUCCUCGUCACUCAGCAGGGCGUCUCUGAGAGAGAUGCC yielded a self-cleavage of 1.84.
UACGUAGGUGGUUUUCCCCUGAUAGUGCAAAGGGGGCCUGGAAGUUUGGACUGGGCAGAGCCCAACACAGAGUGGCAAAGUGGCUGUGGCUAGACUGCCUCUCUGGAUUCCUCGUCACUCAGCAGGGCAUCUCUGAGAGAAAUGCC gave a self-cleavage of 0.02.
UACGUAGGUGGUUUUCCCCUGAUAGUGUUAAGGGGGCCAGGAAGUUUGGACUGGGCAGAGCUCAACACAGCGUGGCAAAGCGGCUGUGGCUAGACUGCCUCUCUGGAUUCCUCGUCACUCAGCAGGGCACCUCUGAGAGAAAUGCC showed a self-cleavage of 0.84.
Variant UACGUAGGUGGUUUUCCCCUGAUAGUGCAAAGGGGGCCUGGAAGUUUGGGCUGGGCAGAGCUCAACACAGCGUGGCAAAGUGGCUGAGGCUAGACUGCCUCUCUGGGUUCCUCGUCACUCAGCAGGGCAUCUCUGAGAGAAAUGCC has a self-cleavage of 0.
Work on UACGUAGGUGGUUUUCCCCUGAUAGUGUUAAGGGGGCCUGGAAGUUUGGACUGGGCAGAGCUCAACACAGCGUGGCAAAGCGGCUGUGGCUAGACUGCCUCACUGGAUUCCUCGUCACUCAGCAGGGCAUCUCUGAGAGAAAUGCC yielded a self-cleavage of 1.53.
UACGUAGGUGGUUUUCCCCUGAUAGUGGUAAAGGGGCCUGGAAGUUUGGACUGGGCAGAGCUCAACACAGCGUGGCAAAGUGGCUGUGGCUAGACUGCCUCUCUGGAUUCCUUGUCACUCAGCAGGGCAUCCCUGAGAGAAAUGCC showed a self-cleavage of 0.27.
Variant UACGUAGGUGGUUUUCCCCUGAUAGUGGUAAGGGGGCCUGGAAGUUUGGACUGGGCAGAGCUCAACACAGCGUGGCGAAGUGGCUGUGGCUAGACUGCCUCUCUGGAUUCCUCGUCACUCAGCAGGGCAUCUCUGGGAGAAAUGCC has a self-cleavage of 0.92.
For UACGUAGGUGGUUUUCCCCUGAUAGUGUUAAGGGGGCCUGGAAGUUUGGACUGGGCAGAGCACAACACAGCGUGGCAAAGUGGCUGUGGCUAGACCGCCUCUCUGGAUACCCCGUCACUCAGCAGGGCAUCUCUGAGAGAAAUGCC, the self-cleavage was 0.1.
UACGUAGGUGGUUUUCCCCUGAUAGUGGUAAGGGUGCCUGGAAGAUUGGACUGGGCAGAGCUCAACACAGCGUGGCAAAGUGGCUGUGGCUAGACUGCCUCUCUGGAUUCCUCGUCACUCAGCGGGGCAUCUCUGAGAGAAAUGCC showed a self-cleavage of 0.62.
Work on UACGUAGGUGGUUUUCCCCUGAUAGUGUUAAGGGGGCCUGGAGGUUUGGACUGGGCAGAGCUCAACGCAGCGAGGCAAAGUGGCUGUGGCUAGACUGCCUCUCUGGAUUCCUCGUCACUCAGCAGGGCAUCUCUGAGAGAGAUGCC yielded a self-cleavage of 0.5.
UACGUAGGUGGUUUUCCCCUGAUAGUGCAAAGGGGGCCUGGAAGUCUGGACUGGGCAGAGCUCAACACAGCGCGGCAAAGUGGCUGCGGCUAGACUGCCUCUCUGGAUUCCUCGUCACUCAGCAGGGCAUCUCUGAGAGAAAUGCC gave a self-cleavage of 1.15.
Work on UACGUAGGUGGUUUUCCCCUGAUAGUGUUAAGGGGGCCUGGAAGUUUGGACUGGGCAGAGCUCAACACAGCGUGGCAAAGUGGCUGUGGCGAGACUGCCUCUCUGGAUUCCUCGUCACUCAGCAAGGCAUCUCUGAGAGAAAUGCC yielded a self-cleavage of 0.03.
In the case of UACGUAGGUGGUUUUCCCCUGAUAGUGCAAAGGGGGCCUGGAAGUUUGGACUGGGCAGAGCUCAACACAUCGCGGCAAAGUGGCUGUGGCUAGACUGCCUCUCUGGAUUCCUCGUCACUCAGCAGGGCAUCUCUGAGAGAAAUGCC, the self-cleavage is reported as 0.26.
In the case of UACGUAGGUGGUUUUCCCCUGAUAGUGCAAAGGGGGCCUGGAAGUUUGGACUGUGCAGAGCUCAACACGGCGUGGCAAAGUGGCUGUGGCUAGACUGCCUCUCUGGAUUCCUCGUCACUCAGCAGGGCAUCCCUGAGAGAAAUGCC, the self-cleavage is reported as 0.12.
For UACGUAGGUGGUUUUCCCCUGAUAGUGCAAAGGGGGCCUGGAAGUUUGGACUGGGCAGAGCUCAACACAGCGUGGCAAAGUGGCUGUGGCUAGUCUGCCUCUCUGGAUUCCUCGCCACUCAGCAGGGCAUCUCUGAGAGAGAUGUC, the self-cleavage was 0.59.
Work on UACGUAGGUGGUUUUCCCCUGAUAGUGUUAAGGGGGCCCGGAAGUUUGGACAGGGCAGAGCUCAACACAGCGUGGCAAAGUGGCUGUGGCUAGACUGCCUCUCUGGAUUCCUCGUCACUCAGCAGGGCAUCUCUGAGAGAAAUGCC yielded a self-cleavage of 0.24.
With UACGUAGGUGGUUUUCCCCUGAUAGUGUUAAGGGGGCCUGGAAGUUUGGACUGGGCAGAGCUCAACACAGCGUGGCAAAGUGGCUGUGGUUAGACUGCCUCUCUGGAUUCCUCGUCACUCAGCAGGGCAUCUCUGGGAGAAAUGCC the self-cleavage was 0.04.
In the case of UACGUAGGUGGUUUUCCCCUGAUAGUGUCAAGGGGGCCUGGAAGUUUGGACUGGGCAGAGCUCAACACAGCGUGGCAAAGUGGCUGUGGCUAGACUGCCUCUCUGGAUUCCUCGUCACUCAGCAGGGCAUCUCUGAGGGAAGUGCC, the self-cleavage is reported as 0.71.
Work on UACGUAGGUGGUUUUCCCCUGAUAGUGUUAAGGGGGCCUGGAAGUUUGGACUGGGCAGAGCUCAACACAGCGUGGCAGAGUGGCUGUGGCUAGACUGCCUCUCUGGAUUCCUCGUCACUCAGCAGGGCAUCUCCGAGAGAAAUGCC yielded a self-cleavage of 1.15.
Variant UACGUAGGUGGUUUUCCCCUGAUAGUGCAAAGGGGGCCUGGAAGUUUGGACUGGGCAGAGCUCAACACAGCGCGGCAAAGUGGCUGUGGCUAGACUGCCUCUCUGGAUUCCUCGUCACUCAGCAGGACAUCUCUGGGAGAAAUGCC has a self-cleavage of 1.62.
In the case of UACGUAGGUGGUUUUCCCCUGAUAGUGUUAAGGGGGCCCGGAAGUUUGGACUGGGCAGAGCUCUACACAGCGUGGCAAAGUGGCUGUGGCUAGACAGCCUCUCUGGAUUCCUCGUCACUCAGCAGGGCGUCUCUGAGAGAAAUGCC, the self-cleavage is reported as 0.01.
In the case of UACGUAGGUGGUUUUCCCCUGAUAGUGCAAAGGGGGCUUGGAAGUUUGGACUGGGCAGAGCUCAACACAGCGUGGCAAAGUGGCUGAGGCUAGACUGCCUCUCUGGAUUCCUCGUCACUCAGCAGGGCAUCCCUGAGAGAAAUGCC, the self-cleavage is reported as 0.12.
In the case of UACGUAGGUGGUUUUCCCCUGAUAGUGCAAAGGGGGCCUGGAAGUUUGGACUGAGCAGAGCUCAACACAGCGUGGCAAAGUGGCUGAGGCUAGACUGCCUCUCUGGAUUCCUCGUCACUCAGCAGGGCAUCUCUGAGAGAAAUGCC, the self-cleavage is reported as 0.09.
With UACGUAGGUGGUUUUCCCCUGAUAGUGCAAAGGGGGCCUUGAAGUUUGGACUGGGCAGAGCUCAACACAGCGUGGCAAAGUGGCCGUGGCUAGACUACCUCUCUGGAUUCCUCGUCACUCAGCAGGGCAUCUCUGAGAGAAAUGCC the self-cleavage was 0.01.
